Experimental data taken from the supplement of paper PMC3334620.
In all, about 33,000 sequences were measured (“E-score (-0.5 to 0.5)”: median about -0.036, highest 2% from about 0.37 on). The list shows a part of the results.

The sequences below were run against T1, Yer064c (UniProt P40041) (assay: PBM E-score (8-mer binding enrichment) (E-score (-0.5 to 0.5)); higher = stronger / more preferred TF binding; most listed sequences are background and not binding sites). Conditions: protein concentration: 200 nM; construct: GST-full length.
T1 sequence: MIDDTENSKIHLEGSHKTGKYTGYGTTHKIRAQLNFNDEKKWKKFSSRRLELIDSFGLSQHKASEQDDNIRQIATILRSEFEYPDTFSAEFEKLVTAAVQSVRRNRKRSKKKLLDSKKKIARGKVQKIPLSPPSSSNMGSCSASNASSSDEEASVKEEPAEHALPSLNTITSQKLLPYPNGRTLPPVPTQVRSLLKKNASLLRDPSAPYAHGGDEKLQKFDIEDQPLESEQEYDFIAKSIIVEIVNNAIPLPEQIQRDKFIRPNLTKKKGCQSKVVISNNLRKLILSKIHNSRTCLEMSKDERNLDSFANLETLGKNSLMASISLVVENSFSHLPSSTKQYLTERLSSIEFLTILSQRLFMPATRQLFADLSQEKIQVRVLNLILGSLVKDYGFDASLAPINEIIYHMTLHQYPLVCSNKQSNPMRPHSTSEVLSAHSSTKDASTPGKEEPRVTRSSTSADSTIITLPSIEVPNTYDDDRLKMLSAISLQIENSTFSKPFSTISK
In short: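 Yeast transcription factors carrying a GST tag, as full-length proteins or DNA-binding domains, were produced by PURExpress in vitro transcription/translation. About 100-200 nM protein was applied to universal all-10-mer Agilent arrays, double-stranded by primer extension on fresh or once-stripped slides. Bound protein was detected with fluorescent anti-GST, and scans were normalised with masliner. The Universal PBM Analysis Suite gave each ungapped eight-base word, pooled with its reverse complement, an E-score, a modified Wilcoxon-Mann-Whitney statistic.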

First: AGTTCTTC
Second: ATCTTTTG
The “PBM E-score” value of the first is higher: 0.0732 for the first, -0.00455 for the second.

Going from ACTACACG to CCTTTCGA, the “PBM E-score” value falls from 0.137 to -0.098.

Compared with GCGCTTTA, CGCTTCAA is higher in “PBM E-score” value: -0.161 for the first, -0.101 for the second.

First: CACGGCTA
Second: ACGAGAGC
The “PBM E-score” value of the first is higher: -0.0631 for the first, -0.143 for the second.

First: AGGGCTAA
Second: ACTAGCTA
The “PBM E-score” value of the first is higher: 0.0634 for the first, -0.0796 for the second.

Going from AACTATCG to GCGAGATA, the “PBM E-score” value falls from -0.0636 to -0.116.

Going from TCGGACCA to CTATGACC, the “PBM E-score” value rises from -0.00066 to 0.107.

Compared with GACTAGGA, CGATCAAG is lower in “PBM E-score” value: 0.376 for the first, 0.029 for the second.

Compared with AGTTACTA, CTGGCCTA is lower in “PBM E-score” value: 0.244 for the first, -0.25 for the second.

Compared with GAGCAACA, GCGATAAA is lower in “PBM E-score” value: -0.0949 for the first, -0.219 for the second.

Compared with CGGCGAGC, ACTGGGAG is higher in “PBM E-score” value: -0.108 for the first, -0.059 for the second.

Going from TGACGGAA to AGAGCCCT, the “PBM E-score” value falls from -0.0189 to -0.145.

Compared with CCTGCAAG, CGAAGACA is higher in “PBM E-score” value: -0.198 for the first, 0.00765 for the second.

First: AGGCACTG
Second: CCACTGGC
The “PBM E-score” value of the first is higher: -0.0757 for the first, -0.16 for the second.

Compared with GCAAATTA, AACGCGCT is higher in “PBM E-score” value: -0.184 for the first, -0.133 for the second.

Compared with ATGGCCCG, AAGGCTCA is higher in “PBM E-score” value: -0.278 for the first, 0.186 for the second.

Compared with AAGTTGCC, GCTGACAC is higher in “PBM E-score” value: -0.227 for the first, 0.00863 for the second.

Compared with AGGGGTCA, CATTCGTA is higher in “PBM E-score” value: 0.0183 for the first, 0.0407 for the second.

Compared with TACTCTAA, ACATCATG is higher in “PBM E-score” value: -0.042 for the first, 0.0945 for the second.

First: CAGGCGAA
Second: AGCGGGGG
The “PBM E-score” value of the first is higher: -0.0848 for the first, -0.231 for the second.

Compared with AATAGTAA, AAGTGACC is lower in “PBM E-score” value: 0.0629 for the first, -0.00564 for the second.

Compared with ATGTTGGC, CGAAGGCA is lower in “PBM E-score” value: -0.191 for the first, -0.264 for the second.

Going from CTCTTGGC to CGCGTCAC, the “PBM E-score” value rises from -0.109 to -0.0553.

First: CCTTTGAC
Second: CCAACTTA
The “PBM E-score” value of the first is higher: 0.0859 for the first, -0.0408 for the second.

Going from GAAGCTGC to GCCATTGA, the “PBM E-score” value rises from -0.0734 to 0.134.

Compared with ATTTCAGG, AAGACTAA is higher in “PBM E-score” value: -0.0143 for the first, 0.442 for the second.

Compared with GTTTAAAA, AATGTGAG is higher in “PBM E-score” value: 0.0456 for the first, 0.123 for the second.

Going from TGATGGAA to ATGTCACA, the “PBM E-score” value falls from 0.125 to 0.095.

Going from AGCAGCCG to AGAATGCG, the “PBM E-score” value falls from -0.0995 to -0.17.

Going from ATCTCGCA to TCAGCCAA, the “PBM E-score” value rises from 0.0436 to 0.127.

First: ATTAAACG
Second: CGACTGCC
The “PBM E-score” value of the first is higher: 0.131 for the first, 0.0625 for the second.

Going from GACCTTCA to ACAGCTCG, the “PBM E-score” value falls from -0.00212 to -0.158.

First: ACAGGCGA
Second: CTAGTAAA
The “PBM E-score” value of the first is lower: -0.00968 for the first, 0.142 for the second.

Compared with CTGGCTTC, ACGAAAAC is higher in “PBM E-score” value: -0.154 for the first, 0.0697 for the second.

Going from CTATCGTC to CAAAACTG, the “PBM E-score” value rises from -0.0974 to -0.0183.

Going from ATCCCAAC to AAAGTCGT, the “PBM E-score” value rises from -0.0556 to 0.258.

Going from AAGCGGCT to ACATGCCG, the “PBM E-score” value falls from 0.0683 to -0.124.

First: AAGGACGT
Second: TATGGGGA
The “PBM E-score” value of the first is higher: 0.0902 for the first, 0.00394 for the second.

Compared with ATCATAGA, ATCGGTAC is lower in “PBM E-score” value: 0.32 for the first, -0.0379 for the second.

Going from TAGCGCTA to AATCGAGC, the “PBM E-score” value rises from 0.00933 to 0.126.

First: ACACCAAG
Second: CTGACGGA
The “PBM E-score” value of the first is lower: -0.15 for the first, -0.0463 for the second.

Compared with CCAAGGGA, ACCGACGC is higher in “PBM E-score” value: -0.181 for the first, -0.118 for the second.

First: AACTTCTG
Second: CCGCGTAC
The “PBM E-score” value of the first is lower: -0.0661 for the first, -0.0421 for the second.

Compared with CCTTCACA, CACGGCGA is higher in “PBM E-score” value: -0.0814 for the first, 0.0377 for the second.

First: TCCTGGAA
Second: ACTACTCC
The “PBM E-score” value of the first is lower: -0.12 for the first, 0.0915 for the second.

Compared with GATGTATA, CCCACACC is higher in “PBM E-score” value: -0.00143 for the first, 0.00154 for the second.

Going from GGTGTTCA to AGGTGACC, the “PBM E-score” value rises from -0.0106 to 0.101.

Compared with CGAGCTGA, AGCAGCAT is lower in “PBM E-score” value: 0.129 for the first, -0.265 for the second.

First: ACTTTTGC
Second: ACCTGTTA
The “PBM E-score” value of the first is higher: -0.0485 for the first, -0.0514 for the second.

First: CTCACCGA
Second: GTACCTAC
The “PBM E-score” value of the first is higher: 0.185 for the first, -0.0236 for the second.

Compared with AGACTAGC, CTAGCGTA is lower in “PBM E-score” value: 0.251 for the first, -0.0869 for the second.

Compared with AAGTTGCT, CGCACTGA is higher in “PBM E-score” value: -0.0746 for the first, -0.0165 for the second.

First: ACAGGACA
Second: ACCCGCCG
The “PBM E-score” value of the first is lower: 0.047 for the first, 0.104 for the second.

First: GCTAAGGA
Second: CGACAGCG
The “PBM E-score” value of the first is higher: -0.14 for the first, -0.182 for the second.

Going from TACGAATA to AGGCATTG, the “PBM E-score” value falls from 0.107 to -0.171.

Compared with GGACACTA, ACACCCAA is higher in “PBM E-score” value: -0.179 for the first, -0.0135 for the second.

Compared with AGTATCGA, ACGATCTC is lower in “PBM E-score” value: 0.118 for the first, -0.116 for the second.

Compared with ATACGGAC, AAGAAAAC is lower in “PBM E-score” value: 0.0167 for the first, 0.00662 for the second.

Going from ATATCGAA to CCTGGTTC, the “PBM E-score” value falls from 0.0673 to -0.101.

Compared with CTATGTCC, AAGGTTCT is higher in “PBM E-score” value: -0.227 for the first, -0.118 for the second.

First: CAGAAATC
Second: CAGACGTC
The “PBM E-score” value of the first is higher: 0.0542 for the first, -0.139 for the second.

Compared with CGCGAATA, ACCCACAG is lower in “PBM E-score” value: 0.0375 for the first, -0.0275 for the second.

Compared with CGATTTTA, CCGTGAAC is higher in “PBM E-score” value: -0.169 for the first, -0.0183 for the second.

Going from ACGATTTC to AGATCGAT, the “PBM E-score” value rises from -0.0265 to -0.00287.

Compared with AGAAAATC, CAGCGGGA is lower in “PBM E-score” value: 0.0604 for the first, -0.161 for the second.

First: AGTCTCTG
Second: ATCAAGTC
The “PBM E-score” value of the first is higher: 0.31 for the first, 0.24 for the second.

First: ACACACCG
Second: AGGAAAAA
The “PBM E-score” value of the first is higher: 0.0236 for the first, -0.0558 for the second.

Compared with ACCCTAAA, TATTAGAA is higher in “PBM E-score” value: -0.052 for the first, 0.103 for the second.

Going from GCCGCAAA to GTATACTA, the “PBM E-score” value rises from -0.0538 to -0.00368.

Going from ACCATGGG to GCAGGTAC, the “PBM E-score” value rises from -0.154 to -0.0611.

First: CCCATGGG
Second: AGAAGCAT
The “PBM E-score” value of the first is higher: 0.203 for the first, -0.0539 for the second.

First: AATACCTA
Second: TCAAGAAA
The “PBM E-score” value of the first is lower: -0.0132 for the first, 0.166 for the second.

Going from CGTAATGC to ATGCTACC, the “PBM E-score” value rises from -0.269 to -0.17.

Compared with CGCTACAG, AAAGCGAT is higher in “PBM E-score” value: -0.0846 for the first, 0.122 for the second.

First: TCCGGTAA
Second: GAGAAAAA
The “PBM E-score” value of the first is lower: -0.0282 for the first, 0.0131 for the second.

Going from CACCAAGG to GGAAAAAA, the “PBM E-score” value falls from -0.0597 to -0.106.

First: CAAGACGC
Second: ATTCGATA
The “PBM E-score” value of the first is lower: -0.166 for the first, -0.00674 for the second.

First: ATAGTTCA
Second: ATAATGCA
The “PBM E-score” value of the first is higher: 0.0794 for the first, -0.151 for the second.

Going from AATCCCGA to ACATTTCA, the “PBM E-score” value falls from 0.0286 to -0.0918.

Going from GCCGGAAC to AGTTGCAT, the “PBM E-score” value rises from -0.293 to -0.2.

Going from ACACCCGG to CGTGGAAA, the “PBM E-score” value rises from 0.00016 to 0.031.

First: ACAGCAAA
Second: ACATACAT
The “PBM E-score” value of the first is higher: 0.0558 for the first, 0.0185 for the second.

Going from CTTGCTCA to AGAGCATA, the “PBM E-score” value falls from -0.0925 to -0.29.

First: CGCAGCAC
Second: AATATGGG
The “PBM E-score” value of the first is lower: 0.0869 for the first, 0.0903 for the second.

Compared with GCTCGGAC, ATTCTTGC is higher in “PBM E-score” value: -0.14 for the first, -0.0519 for the second.

Going from CGTCTGCC to GTCCACAC, the “PBM E-score” value rises from -0.356 to 0.0369.
